84 variants from a collection of fitness landscapes (doi:10.1126/science.1257360) can be followed below.

The list shows a part of the results. A value given as a limit tells only on which side of the number the result lay.

First the molecules themselves.
B1: PhoQ; a variant is named by its letters at X, in order, P23837 (parent)
chain: MKKLLRLFFPLSLRVRFLLATAAVVLVLSLAYGMVALIGYSVSFDKTTFRLLRGESNLFYTLAKWENNKLHVELPENIDKQSPTMTLIYDENGQLLWAQRDVPWLMKMIQPDWLKSNGFHEIEADVNDTSLLLSGDHSIQQQLQEVREDDDDAEMTHSVAVNVYPATSRMPKLTIVVVDTIPVELKSSYMVWSWFIYVLSANLLLVIPLLWVAAWWSLRPIEALAKEVRELEEHNRELLNPATTRELTSLVRNLNRLLKSERERYDKYRTTLTDLTHSLKTPLXXLQXXLRSLRSEKMSVSDAEPVMLEQISRISQQIGYYLHRASMRGGTLLSRELHPVAPLLDNLTSALNKVYQRKGVNISLDISPEISFVGEQNDFVEVMGNVLDNACKYCLEFVEISARQTDEHLYIVVEDDGPGIPLSKREVIFDRGQRVDTLRPGQGVGLAVAREITEQYEGKIVAGESMLGGARMEVIFGRQHSAPKDE

Variants of B1 are the subject of this assay. As to the kind of experiment: enrichment ratio after two sorts for PhoP signalling (ratio (wild type AVST 3.29)); higher = more functional. The note with it: with PhoP (E. coli).
For ANLN, the enrichment ratio came out at 8.47.
For the variant DNLA, the enrichment ratio is at most 0.25.
In the case of HHTY it was at most 0.25.
On to ERYC, for which the enrichment ratio was at most 0.25.
As to YMCG, the enrichment ratio was at most 0.25.
Turning to HRCL, the enrichment ratio was at most 0.25.
Consider MMSN, for which the enrichment ratio was at most 0.25.
Consider MLGS, for which the enrichment ratio is at most 0.25.
As to FNIP, the enrichment ratio was at most 0.25.
On to TITW, for which the enrichment ratio is at most 0.25.
In the case of ANRY, the enrichment ratio is at most 0.25.
As to DDDW, the enrichment ratio was at most 0.25.
For the variant GNRT, the enrichment ratio is at most 0.25.
The same measure for IRYA: at most 0.25; for VNIH: at most 0.25; for NDMG: at most 0.25.
Regarding LDHC, the enrichment ratio is at most 0.25.
Take RNPT: the enrichment ratio was at most 0.25.
As for ELDM, the enrichment ratio is at most 0.25.
As for SVMQ, the enrichment ratio is 15.2.
Regarding YWTP, the enrichment ratio is at most 0.25.
Take NLKF: the enrichment ratio is at most 0.25.
Regarding TDCT, the enrichment ratio is 14.8.
The same measure for DENM: at most 0.25; for PYGW: at most 0.25; for KLHP: at most 0.25.
The same measure for SDEA: at most 0.25; for PNVR: at most 0.25; for SKDA: at most 0.25.
For WIWF, the enrichment ratio was at most 0.25.
For PLAR, the enrichment ratio was at most 0.25.
On to LDRE, for which the enrichment ratio was at most 0.25.
Consider LHVG, for which the enrichment ratio is at most 0.25.
Turning to FPIP, the enrichment ratio is at most 0.25.
Regarding GKRI, the enrichment ratio is at most 0.25.
In the case of EKCG it was at most 0.25; in that of HHFG, at most 0.25.
For the variant RAQN, the enrichment ratio was at most 0.25.
Consider FFRN, for which the enrichment ratio was at most 0.25.
Consider VNGH, for which the enrichment ratio is at most 0.25.
With HDAC, the enrichment ratio is at most 0.25.
In the case of VEPG, the enrichment ratio is at most 0.25.
Consider PGQG, for which the enrichment ratio was at most 0.25.
Turning to YREA, the enrichment ratio was at most 0.25.
Regarding LSHC, the enrichment ratio is at most 0.25.
On to FLYR, for which the enrichment ratio is at most 0.25.
For ATSP, the enrichment ratio was at most 0.25.
As for GQSE, the enrichment ratio is at most 0.25.
The same measure for PDGI: at most 0.25.
The same measure for FTQF: at most 0.25.
In the case of GVFD it was at most 0.25.
As to GNWS, the enrichment ratio was at most 0.25.
Take NRID: the enrichment ratio was at most 0.25.
In the case of VNDQ it was at most 0.25.
As for DWCC, the enrichment ratio was at most 0.25.
On to IYSV, for which the enrichment ratio is at most 0.25.
Take VRKC: the enrichment ratio was at most 0.25.
The same measure for PNDM: at most 0.25; for YEQN: 0.38; for GEKA: at most 0.25.
Regarding APFP, the enrichment ratio was at most 0.25.
Take RASS: the enrichment ratio is at most 0.25.
As for VTDD, the enrichment ratio was at most 0.25.
Regarding WWYM, the enrichment ratio was at most 0.25.
SACR: the enrichment ratio was found to be 3.76.
On to DWAS, for which the enrichment ratio was at most 0.25.
In the case of IKCP, the enrichment ratio is at most 0.25.
Turning to LPNA, the enrichment ratio is at most 0.25.
WTDC: the enrichment ratio was at most 0.25.
As for SGRY, the enrichment ratio is at most 0.25.
For RCDE, the enrichment ratio was at most 0.25.
Consider SEGW, for which the enrichment ratio was at most 0.25.
In the case of ARQA it was at most 0.25; in that of AWCL, 0.642; in that of KSLN, at most 0.25.
On to VKIP, for which the enrichment ratio was at most 0.25.
Regarding FGTL, the enrichment ratio is at most 0.25.
The same measure for FDLP: at most 0.25; for SWQW: at most 0.25; for GICD: 6.53.
In the case of PHLR, the enrichment ratio was at most 0.25.
In the case of FVFT it was at most 0.25.
In the case of AIQV it was 4.69; in that of DITQ, at most 0.25.
